Test results: PubChem BioAssay AID624296 (National Center for Advancing Translational Sciences (NCATS), 2012)
Among all 350,000 compounds or so, about 9,900 (2.8%) were called active. The inconclusive results got no clear call from the source; some entries with a clear call stand among them for comparison. The call rests on the fitted dose curve; in most records, active means well fitted activation curve with a large enough effect; inconclusive means small, poorly fitted or top-dose-only effect; inactive means no such curve, though single readings can be large or run the other way. No potency is given beside an inconclusive call; the fits are too rough.

assay: A quantitative high throughput screen for small molecules that induce DNA re-replication in MCF 10a normal breast cells.; further: nearly all actives have a fitted effect of over 50% in size; conditions: MCF 10A DNA re-replication, Hoechst nuclear intensity, 48 h; series mostly up to 46.1 µM
Potency means the concentration at half of the fitted maximal effect; tags describe the fitted curve by direction and shape.

Compound | Potency
CCN(CC(=O)Nc1ccc(S(=O)(=O)N2CCCCC2)cc1)Cc1ccccc1 | inactive
CC12CNCC(C)(CN(C3(O)C(=O)Nc4ccc(Br)cc43)C1)C2=O (stereo unspecified) | inconclusive [activator, single point]
CCOC(=O)C1CCCCN1S(=O)(=O)c1ccc2c(c1)CC(C)N2C(=O)C1CCC1 (stereo unspecified) | inconclusive [activator, partial curve]
CCc1ccc(Nc2nnc(SC3CCOC3=O)s2)cc1 (stereo unspecified) | inconclusive [activator, single point]
Cc1cccc(Cc2c(C)nc3c(C(=O)NCc4ccco4)cnn3c2C)c1 | inconclusive [activator, single point]
COc1ccc(OC)c(/C=C/C(=O)Nc2ccc(OC)nc2)c1 | inconclusive [activator, single point]
CC1=[N+](C)N(c2ccccc2)C(=O)C1N=Cc1ccc(Cl)cc1 (stereo unspecified) | inconclusive [activator, partial curve]
O=C1c2ccccc2C(=O)C12OC2c1cccc2ccccc12 (stereo unspecified) | inconclusive [activator, partial curve]
Cc1ccc(NC(C)c2cc(Cl)ccc2O)cc1 (stereo unspecified) | inconclusive [activator, partial curve, poor fit]
O=C(CCCCCn1c(=S)[nH]c2ccc(N3CCOCC3)cc2c1=O)NCc1ccccc1 | inactive
COc1ccc(C(=O)NCC(=O)N2CCN(c3ccccc3)CC2)cc1 | inactive
O=c1c2ccccc2nc(COc2ccccc2)n1/N=C/c1c[nH]c2ccccc12 | inactive
Cc1ccc(NC(=O)COC(=O)c2cccc3c2C(=O)c2ccccc2C3=O)c(C)c1 | inconclusive [activator, full curve, poor fit]
COc1ccc(-c2nnc3ccc(SCC(=O)N4CCCC4)nn23)cc1 | inactive
COc1ccc([C@@]23Oc4cc(OC)cc(OC)c4[C@]2(O)[C@H](O)[C@H](C(=O)N(C)C)[C@H]3c2ccccc2)cc1 | inconclusive [activator, partial curve, poor fit]
CCC(C)NCCOCCOc1ccc(C)cc1OC (stereo unspecified) | inconclusive [activator, single point]
CCn1c(CCCCc2n[nH]c(=S)n2CC)n[nH]c1=S | inconclusive [activator, single point]
COc1cc(/C=C2/CCCC(C(=O)C(F)(F)F)=C2O)ccc1O | inactive
COc1ccc(-c2noc(CCCCC(=O)N3CCN(c4cc(C)ccc4C)CC3)n2)cc1 | inactive
NS(=O)(=O)c1ccc(NC(=O)CNC(=O)c2ccc3c(c2)OCO3)cc1 | inactive
COc1ccc([C@H]2CC(=O)C=C(c3cc(OC)ccc3OC)C2)cc1 | inconclusive [activator, single point]
CCOc1ccc(OCC)c(NC(=O)C2CCN(S(=O)(=O)c3c(C)[nH]c(=O)[nH]c3=O)CC2)c1 | inactive
CCOC(=O)c1c(C)[nH]c(=S)c(C#N)c1-c1ccc(Cl)cc1 | inconclusive [activator, partial curve, poor fit]
Cc1onc(-c2ccccc2Cl)c1C(=O)Nc1nc2ccc(S(C)(=O)=O)cc2s1 | inactive

Compound | Potency
COc1cc(C(=O)Sc2ccc(C)cc2)cc(OC)c1OC | inconclusive [activator, single point]
CCC(=O)c1ccc(OCC(=O)NC2(C#N)CCCCC2)cc1 | inactive
Cc1noc(C)c1COC(=O)c1csc2c1CCC(C)C2 (stereo unspecified) | inconclusive [activator, full curve]
COc1cc(C(=O)N/N=C/c2coc3ccc(Cl)cc3c2=O)ccc1O | inconclusive [activator, partial curve, poor fit]
CCN(CC)c1nc2ccccc2nc1C(C#N)C(=O)NCCCOC (stereo unspecified) | inactive
O=[N+]([O-])c1ccc(N2CCN(C(=S)c3cccc([N+](=O)[O-])c3)CC2)cc1 | inactive
CC(=O)Nc1ccc(-c2nnc(SCc3ccccc3C#N)n2C)cc1 | inactive
C/C(=N\NC(=S)NC(C)C)c1ccc(C(C)(C)C)cc1 | inconclusive [activator, single point]
O=C(NCCCCCNC(=O)c1ccco1)c1ccco1 | inconclusive [activator, single point]
O=[N+]([O-])c1cccc(/C=N\N2CCN(c3ccc(Cl)cc3)CC2)c1 | inactive
CCN1CCC(O)(/C=C/c2ccc(C(C)C)cc2)C(C(=O)/C=C/c2ccc(C(C)C)cc2)C1 (stereo unspecified) | active: 11.6 µM
N#C/C(=C\c1ccc(O)c(O)c1)C(=O)Nc1ccccc1 | inconclusive [activator, full curve, poor fit]
Cc1ccc(C(=O)Nc2ccc(C(=O)N/N=C/c3ccccn3)cc2)cc1 | inconclusive [activator, partial curve]
Cn1nnnc1SCCNC/C=C/c1ccccc1 | inconclusive [activator, single point]
O=[N+]([O-])c1ccc(Nc2nc(NCCO)nc(N3CCCC3)n2)cc1 | inconclusive [activator, single point]
O=C(NCC1CCCO1)c1ccc(CNS(=O)(=O)c2cccc(Cl)c2)cc1 (stereo unspecified) | inconclusive [activator, partial curve]
COc1ccc(NC(=O)c2cc3c(=O)n(C)c4ccccc4c3n2C)cc1Cl | inconclusive [activator, single point]
NC(=O)c1nc(C(=O)N2CCCCC2)c2ccccc2n1 | inconclusive [activator, single point]
COCc1nnc(NS(=O)(=O)c2ccc(Cl)cc2)s1 | inconclusive [activator, single point]
CCOC(=O)c1cc2cc3ccccc3cc2[nH]1 | inconclusive [activator, full curve, poor fit]
COc1ccc2[nH]cc(CCNC(=S)NC3CCCC3)c2c1 | inactive
Cc1ccc(OCC(=O)N2CCCCC2C)c([N+](=O)[O-])n1 (stereo unspecified) | inactive
COc1ccccc1CN(C)C(=O)CSCC(=O)Nc1ccccc1F | inactive
C#C[C@@]1(O)CC[C@@H]2[C@H]3CCC4=C/C(=N\O)CC[C@H]4[C@@H]3CC[C@]21CC | inconclusive [activator, single point]

Compound | Potency
CN=C1c2cc3cc(OC)ccc3n2CCN1Cc1ccccc1 | active: 20.6 µM
COc1ccc(CCNC(=O)c2c(C)nc3ccccn23)cc1 | inactive
O=[N+]([O-])c1cc(-c2csc(NCCc3nc4cc(Cl)c(N5CCCCC5)cc4n3CCCO)n2)ccc1Cl | inconclusive [activator, single point]
N#Cc1ccc(S(=O)(=O)N2CCN(CC(=O)NCC3(N4CCOCC4)CCCCC3)CC2)cc1 | inactive
CC(=O)Nc1ccc(CC(=O)NCCC(c2ccccc2)c2ccccc2)cc1 | inconclusive [activator, single point]
COc1ccc2oc(C(=O)NC3CCCCC3)c(C)c2c1 | inconclusive [activator, single point]
COc1ccc(Cc2noc(-c3ccc(OC)c(OC)c3)n2)cc1OC | inconclusive [activator, partial curve, poor fit]
O=C(c1ccc(-n2cccn2)cc1)N1CCc2c([nH]c3ccccc23)C1c1ccccn1 (stereo unspecified) | inconclusive [activator, partial curve, poor fit]
COc1cccc(CNC(=O)C2CCCN(S(=O)(=O)c3cccc4nonc34)C2)c1 (stereo unspecified) | inconclusive [activator, single point]
Cc1cc(NC(=O)CSc2nc(N)c(NC(=O)c3ccccc3F)c(=O)[nH]2)no1 | inactive
c1ccc(-c2nnc3sc(-c4csc5c4CCCC5)nn23)cc1 | inconclusive [activator, single point]
CC(=O)Nc1ccc(S(=O)(=O)N2CCSC2c2ccc(Cl)cc2)cc1 (stereo unspecified) | inconclusive [activator, partial curve, poor fit]
COC(=O)c1sccc1NC(=O)Nc1ccc(C)c(C)c1 | inactive
CC(=O)OCCSc1c(-c2ccccc2)c2cc(Cl)ccc2[nH]c1=O | inactive
COc1cc(OC)c(C(=O)N2CCN(c3ccccn3)CC2)cc1OC | inactive
Cc1ccc2sc(N(CCCN(C)C)C(=O)c3ccc(S(=O)(=O)N(C)C4CCCCC4)cc3)nc2c1C | active: 23.1 µM
Cc1ccccc1Nc1nc(N)nc(COC(=O)c2cccc(S(=O)(=O)N(C)C)c2)n1 | inconclusive [activator, single point]
O=C(/C=C/c1ccccc1)Nn1c(-c2cccs2)nc2ccccc2c1=O | inactive
CN1C(=O)/C(=C/c2ccc(C(=O)NC3CCCC3)cc2)Oc2ccccc21 | inconclusive [activator, single point]
C/C(=N\Nc1ncc(Cl)cc1Cl)c1ccc(OC(F)F)cc1 | inactive
Cc1cccc(C(=O)Nc2ccccc2SCC(=O)Nc2ccc(C)c(Cl)c2)c1 | inconclusive [activator, full curve, poor fit]
CCOc1ccccc1CNC(=O)c1nn(C)c2c1CS(=O)(=O)c1ccccc1-2 | inconclusive [activator, partial curve, poor fit]
Cc1ccc(NC(=O)c2sc3nc(CCl)[nH]c(=O)c3c2C)c(C)c1 | inconclusive [activator, single point]
